Test results as given in PubChem BioAssay AID2675 (National Center for Advancing Translational Sciences (NCATS), 2010).
About 100 (0.036%) of roughly 280,000 compounds were called active. This list was built around the results that the source calls inconclusive (neither active nor inactive); the mix of calls is not that of the screen. Calls follow the shape of the dose curve; as a rule, active = well fitted inhibition curve with a large enough effect in the signal ratio, with a control signal flat (not every such curve was filed as active); inconclusive = small, poorly fitted or top-dose-only effect, or effect the other way, or a change in a side signal; inactive = no such curve, though single readings can be large or run the other way; the % refers to the signal ratio. Where the call is inconclusive, the potency comes from a doubtful curve fit. “Side channel” marks fits to a control or component signal instead of the main read-out.

The compounds below were run against Muscleblind-like protein 1 (Homo sapiens) (UniProt Q9NR56) (assay: qHTS Assay for Inhibitors of MBNL1-poly(CUG) RNA binding). Conditions: TR-FRET MBNL1-His/biotin-(CUG)12 binding, 665/545 ratio; activity change, negative = inhibition: at 57.5 µM (top of the series).
Sequence of UniProt Q9NR56 (Q9NR56 whole entry, looked up): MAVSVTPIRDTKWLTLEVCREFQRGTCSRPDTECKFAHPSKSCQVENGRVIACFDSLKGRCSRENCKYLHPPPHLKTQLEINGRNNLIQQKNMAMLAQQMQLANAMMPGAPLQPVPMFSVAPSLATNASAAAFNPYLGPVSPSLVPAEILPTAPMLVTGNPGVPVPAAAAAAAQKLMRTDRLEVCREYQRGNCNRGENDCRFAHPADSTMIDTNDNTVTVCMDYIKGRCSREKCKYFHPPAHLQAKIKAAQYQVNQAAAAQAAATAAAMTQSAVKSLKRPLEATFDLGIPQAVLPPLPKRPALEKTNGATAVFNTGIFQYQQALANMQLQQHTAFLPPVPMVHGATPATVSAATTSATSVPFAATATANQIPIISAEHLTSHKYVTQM
In short: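 Compounds (final 92 nM to 58 uM) are added to His-tagged MBNL1 and biotin-(CUG)12, then terbium anti-His antibody and streptavidin-XL665 (5 nM final). After 60 min at room temperature, the 665/545 nm ratio is read.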
% is scaled to controls: 0 for no effect and ±100 for the full control effect; potency is read from the fitted curve at half-maximal effect; tags tell the direction and shape of the fitted curve or compound fluorescence and quenching.

Compound	Potency	activity change, negative = inhibition
CNC(=O)c1cc2c(ccc3ccccc32)o1	inconclusive: 22.4 µM [quencher, side channel, single point]	
COc1cc(/C=N/Nc2nc(C)cc(=O)[nH]2)cc(OC)c1O	inconclusive: 35.5 µM [quencher, side channel, single point]	
CCN(CC)S(=O)(=O)c1cc([N+](=O)[O-])ccc1NNC(=O)Nc1ccccc1OC	inconclusive: 20 µM [quencher, side channel, partial curve]	
CCn1c(SCC(=O)N2CCC(C(N)=O)(N3CCCCC3)CC2)nnc1-c1ccccc1	inconclusive: 63.1 µM [inhibitor, single point]	
CSC(=O)NC(=O)NC(=O)c1ccc([N+](=O)[O-])cc1	inconclusive: 2.51 µM [quencher, side channel, full curve]	
CCCn1c(SCC(=O)Nc2ccc(NC(C)=O)cc2)nc2c1c(=O)n(C)c(=O)n2C		inactive: -5.14%
Cc1c(C)[n+](=O)c(-c2ccco2)c(C)n1[O-]	inconclusive: 22.4 µM [quencher, side channel, single point]	
O=C(c1ccccc1)N1CCN(C(=O)c2cc3nc(-c4ccccc4)cc(C(F)(F)F)n3n2)CC1	inconclusive: 14.1 µM [quencher, side channel, partial curve]	
O=C(Oc1ccc[nH]c1=O)c1cc([N+](=O)[O-])cc([N+](=O)[O-])c1	inconclusive: 14.1 µM [quencher, side channel, partial curve]	
C=CCNCC(=O)N1N=C(c2ccc3ccccc3c2)CC1c1ccc(OC)cc1 (stereo not drawn)		inactive: 21.9%
O=S(=O)(N/N=C/c1ccc2c(c1)OCCO2)c1ccccc1	inconclusive: 17.8 µM [quencher, side channel, single point]	
CCC1(C)CC(c2nc(-c3ccc(OC)cc3)cs2)CCS1 (stereo not drawn)	inconclusive: 4.47 µM [fluorescent, side channel, partial curve]	
CCOC(=O)c1cc2c(ccn2C)n1Cc1ccccc1Cl		inactive: 10.7%
C=CCNC(=S)Nc1ccc(N(C)C)cc1		inactive: 7.06%
Cc1ccc(N2C(=O)NC(NS(=O)(=O)c3ccccc3)(C(F)(F)F)C2=O)cc1C (stereo not drawn)	inconclusive: 79.4 µM [inhibitor, partial curve]	
CC(=O)NS(=O)(=O)c1ccc(N=c2ssc3c2-c2cc(C)ccc2NC3(C)C)cc1	inconclusive: 17.8 µM [quencher, side channel, single point]	
CC(Cc1ccccc1)N1C(=O)c2cccc([N+](=O)[O-])c2C1=O (stereo not drawn)	inconclusive: 11.2 µM [quencher, side channel, partial curve]	
O=C(O)CCN1C(=O)c2ccncc2C1=O	inconclusive: 17.8 µM [quencher, side channel, single point]	
CCN1CCN(C2=C(NS(=O)(=O)c3ccc(Br)cc3)C(=O)c3ccccc3C2=O)CC1	inconclusive: 14.1 µM [quencher, side channel, partial curve]	

Compound	Potency	activity change, negative = inhibition
O=C(c1cnc2n(c1=O)CCS2)N1CCN(c2ccc([N+](=O)[O-])cc2)CC1	inconclusive: 17.8 µM [quencher, side channel, partial curve]	
CCCSc1cc(N)cc([N+](=O)[O-])c1	inconclusive: 31.6 µM [quencher, side channel, single point]	
COc1cccc(CNc2ccc(F)c([N+](=O)[O-])c2)c1O	inconclusive: 25.1 µM [quencher, side channel, partial curve]	
O=C1NC2(C=Cc3c(ccc4ccccc34)O2)Oc2ccccc21 (stereo not drawn)	inconclusive: 12.6 µM [quencher, side channel, partial curve]	
Cc1cc(C)c2c(CN3CCCCC3)cc(=O)oc2c1		inactive: 5.2%
CC(c1ccccc1)N1CCC(CNC(=S)Nc2cccc(Cl)c2)C1 (stereo not drawn)		inactive: -2.23%
Cc1ccc(S(=O)(=O)N2C(=O)CCC2C(=O)O/N=C(\N)c2ccc([N+](=O)[O-])cc2)cc1 (stereo not drawn)	inconclusive: 15.8 µM [quencher, side channel, partial curve]	
CCCCn1ccc(O)c(Cc2ccc(F)cc2)c1=O	inconclusive: 7.94 µM [quencher, side channel, full curve, poor fit]	
Cc1cc(C(=O)N/N=C/c2cc([N+](=O)[O-])cc(C)c2O)n[nH]1	inconclusive: 12.6 µM [activator, partial curve]	
O=C(NC(=S)Nn1cnnc1)c1cccc(Br)c1	inconclusive: 79.4 µM [inhibitor, single point]	
Cc1[nH]c2c(C)cccc2c1CCNC(=O)c1ccc2c(c1[N+](=O)[O-])C(=O)c1ccccc1C2=O	inconclusive: 12.6 µM [quencher, side channel, partial curve]	
Cc1occc1C(=O)N/N=C/c1ccc(-c2ccccc2)cc1		inactive: -1.68%
CC(=O)C1=C(O)C(=O)N(c2ccc(C)cc2)C1c1ccccn1 (stereo not drawn)	inconclusive: 31.6 µM [quencher, side channel, partial curve]	
O=C(COc1ccc([N+](=O)[O-])cc1)Nc1ccncc1	inconclusive: 25.1 µM [quencher, side channel, partial curve]	
COc1ccc(-c2cc(C(=O)Nc3c(C)nn(Cc4ccccc4Cl)c3C)no2)cc1		inactive: 8.4%
CCCN1CCN(S(=O)(=O)c2ccc(-c3cc(C)no3)s2)CC1	inconclusive: 28.2 µM [quencher, side channel, single point]	
O=C(O)CC/C(=N\Nc1ccccc1[N+](=O)[O-])c1cccs1	inconclusive: 25.1 µM [quencher, partial curve]	
O=C(/C=C/c1ccco1)Nc1ccc2nc3n(c(=O)c2c1)CCCC3	inconclusive: 5.01 µM [quencher, side channel, full curve]	
Cc1ccc(-n2c(Cn3c(C)nc4ccccc43)n[nH]c2=S)cc1	inconclusive: 100 µM [inhibitor, partial curve]	
